# From article PMC10668032
# This is one part of the list. At the low end of the ranking, values are background and their order means little.
# Biological target: SIX1 homeodomain (reference allele) (UniProt Q15475)
# Test: universal protein binding microarray
# Conditions: Universal all-10-mer PBM (8x60K, AMADID 030236), 300 nM GST-tagged protein, Alexa Fluor 488 anti-GST; buffer, salt, pH and temperature not stated; high values mean tight binding; most listed sequences are background and not binding sites; double strand, one strand shown
row,Sequence,binding signal [E-score]
1,ATTAGGGC,-0.16
2,AGATCTAT,0.189
3,CAGTACGG,-0.0329
4,AGTAGCTA,-0.0659
5,TCTCAGAA,-0.00945
6,ACACTACC,0.136
7,ATGTGGCC,-0.032
8,GGGAACTA,0.0307
9,ATGTATAA,0.154
10,CCTACGTA,0.119
11,ACGCATTG,-0.0628
12,GATCATAC,0.378
13,ACATCCAT,0.0374
14,TCGAGCAA,-0.152
15,ATACCGAC,0.341
16,CCTTGACA,-0.0904
17,GTACATAC,-0.0157
18,CACCCTTA,0.0251
19,TGTGAACA,-0.0218
20,ACGATGGA,0.141
21,AGGAATGG,-0.288
22,ATCAGAAG,0.0455
23,ATCCAGGG,0.236
24,ATGGCCCC,-0.0764
25,GTATATTA,0.267

row,Sequence,binding signal [E-score]
1,GGCGAAGA,-0.119
2,GCAGCTGC,-0.144
3,CCATCTCA,0.164
4,CTGGAGAC,0.0308
5,ACGGCCTA,0.0736
6,AATGAGAC,0.0277
7,ACAGTAAC,-0.189
8,CGGGTCAC,0.145
9,CGCCTCAC,-0.0934
10,CCCCTTCG,-0.0216
11,AGGGCGTG,-0.139
12,GACTCAAC,-0.164
13,CAGTACTC,-0.0438
14,GATCTGGC,0.295
15,TAGGTGAA,-0.0689
16,AGCTCGAG,0.0452
17,ACACTCTC,0.104
18,ACTATGTG,0.0949
19,GAAACTGC,-0.212
20,CTCGCAGA,-0.111
21,CAAGTAGG,-0.127
22,ATGGGTTC,0.0687
23,AAGTTTGT,-0.237
24,CTCCGGGA,0.0288
25,ATTACGAC,0.0413

row,Sequence,binding signal [E-score]
1,ATCTTACA,0.205
2,CCCGAGAA,-0.0488
3,ACGAGAGT,-0.0686
4,ATCCCGGG,0.345
5,TCGCCAAA,-0.248
6,GAGTGGCA,-0.0355
7,ATCGGTAA,0.145
8,CTCAACTC,-0.00632
9,AGTGGGGC,-0.0576
10,CACACCCA,0.0695
11,AGTCACCA,-0.22
12,AGTTTTGA,-0.112
13,AATATTAG,0.0388
14,ATACATCC,0.365
15,ATCACAAC,0.151
16,CTCTTAAA,-0.248
17,GGGGGCCA,-0.0937
18,GTGCTTGA,0.0198
19,AACCAACT,-0.174
20,AGCAGCAT,-0.126
21,CGCAGTTA,-0.078
22,GAAGGCAC,-0.247
23,TCCGTAGA,-0.142
24,AACGCAGT,-0.114
25,AAAAGTGC,-0.277

row,Sequence,binding signal [E-score]
1,GTGTAAGA,0.134
2,AAAACACT,-0.197
3,GGGTTAAC,0.0375
4,CTAATGAA,-0.146
5,AGTATCAA,0.444
6,ATAAAAAC,-0.145
7,ACGCGACC,-0.0743
8,CGGTAACA,-0.192
9,TAGTACGA,0.0562
10,CACATGCA,-0.0401
11,GAGCCCCC,0.0111
12,CATAGGCC,-0.225
13,CAAACAAC,-0.138
14,AACCGGGC,-0.0175
15,AATTGACC,-0.0326
16,CGCCGAGC,-0.0963
17,CAAAGATA,0.253
18,GTTGTCAA,-0.31
19,CGGTACAA,0.00225
20,ATTGCCCA,-0.0658
21,CCGTAACG,-0.234
22,ATGGTTGG,-0.0811
23,CTTCTTGA,-0.0116
24,CCGTGTCG,0.111
25,ATGTTGGA,0.177

row,Sequence,binding signal [E-score]
1,GCTAGCCA,-0.264
2,ATGATATA,0.414
3,ATGCTTAA,0.064
4,CAGAAGAG,-0.171
5,CCGTCCAA,-0.116
6,CCCTGAGC,0.178
7,CATAGGCA,-0.0286
8,CATAGATA,0.259
9,CAGGTCGG,0.0399
10,AGACCCAG,0.116
11,AAATCCTG,-0.15
12,CACATTGC,-0.172
13,AAGAAAAT,-0.0849
14,AACGCTGT,-0.289
15,CAGCTTAG,-0.0222
16,TATTGTAA,-0.0278
17,CGGAATCA,0.0326
18,CACAAAAA,-0.135
19,CATACCTC,0.104
20,TGCTAGCA,0.0904
21,TAACAAGA,-0.207
22,AGCGGACG,-0.16
23,ACCGTGCC,-0.221
24,AAAGTTTG,-0.223
25,ACCGTGCG,0.0264

row,Sequence,binding signal [E-score]
1,AGTTACAC,0.145
2,CAGACAAC,-0.192
3,CCTGGTGA,0.0511
4,AACGGTCT,-0.101
5,ACGAAAAC,0.00501
6,TCCCCGCA,0.148
7,GCACGAAA,-0.155
8,TAAATCTA,-0.0575
9,CTCTCAAC,-0.0654
10,ACGTATGG,-0.0608
11,TCCTCCGA,0.144
12,AAGTATGC,-0.148
13,AAACCCCC,0.102
14,GGCTCTAC,-0.0926
15,AGGAGTGG,-0.0587
16,ACGGTAGT,-0.0711
17,CTGCTACA,-0.0404
18,AATTAAAC,0.0609
19,TAAATTAA,-0.0668
20,AGGCGCCA,-0.178
21,ACCCCAGC,0.226
22,GCCATTCC,-0.134
23,GCCAAAGA,-0.218
24,GAAAGAAA,-0.142
25,GAAGCTCA,-0.095

row,Sequence,binding signal [E-score]
1,GACTGGAA,-0.163
2,ACTGGGAC,-0.17
3,GTTGTAGA,-0.192
4,CTCCGGAC,-0.0718
5,AAGGTTTA,0.0254
6,TGCGAGCA,-0.0944
7,GGGCGATA,0.347
8,GAGACGCA,0.139
9,CTAGTGCC,-0.19
10,GTTGACCA,-0.19
11,ATTCCCTA,-0.0192
12,ATGTGCTC,-0.138
13,CCCAAGGG,-0.141
14,GTAGTTTA,-0.0688
15,AACAACTG,-0.258
16,ATTGGGTG,0.262
17,AGAGTGCT,-0.104
18,GGCAGTAA,-0.056
19,CGGACCTA,-0.054
20,ATACAGTC,0.163
21,AGTGTATA,0.291
22,CGCAAATC,-0.178
23,ACGTTCCT,-0.127
24,GTCGACCA,-0.101
25,AAACGCCG,-0.206

row,Sequence,binding signal [E-score]
1,AGGCTCTA,-0.163
2,AAGACACG,-0.0172
3,CTTAAAGA,-0.117
4,TTACACAA,-0.0113
5,GTTAGTGA,-0.0842
6,AAGCCAGC,-0.091
7,CAGTACCC,-0.0476
8,ATTTGGAG,-0.0342
9,ACGACTCA,-0.117
10,CAACATAA,-0.0681
11,GGCGACAC,0.143
12,CCGGTCAA,-0.098
13,ATTTCCTC,-0.213
14,GCGGTAAC,-0.107
15,GAAGTGAA,-0.237
16,GCCCCTGA,-0.00066
17,ATTACAAC,-0.0801
18,ATGTTAAG,-0.182
19,AATATAAC,0.0555
20,AGGTCACC,-0.274
21,GGGCTCTA,-0.0508
22,ATCCCGAA,0.252
23,ATTAATCC,0.316
24,CGCCCACA,-0.156
25,AAGTTGGT,-0.0338

row,Sequence,binding signal [E-score]
1,TATCTTAA,0.182
2,CTTTAGCC,-0.0401
3,CGTGTTAC,-0.0137
4,CAGTCCCA,-0.102
5,ATTCGTGA,-0.0133
6,GCGGCACA,-0.124
7,AGTGATTA,0.0197
8,AAGGCTAC,-0.147
9,GCCGCGGC,-0.0384
10,CATATGCA,0.0732
11,AGCTGCAG,-0.0923
12,ATGCGAGC,-0.0226
13,CCTCACCG,-0.0626
14,TCTGTTAA,-0.136
15,ATTCGCTA,-0.153
16,CAAAATAG,-0.146
17,TACGCATA,0.197
18,ATGTCAAT,-0.0431
19,TGGTGAAA,-0.138
20,CATACTTC,-0.053
21,CAGTCTCG,-0.151
22,GCGAATAC,0.115
23,AGACACGC,-0.0736
24,TCGATTAA,0.0867
25,CAGGTGCG,-0.109

row,Sequence,binding signal [E-score]
1,TGAAGACA,-0.1
2,CGATTTAC,-0.0792
3,TACCCATA,0.222
4,CACTATCG,0.211
5,AGAGACCA,-0.022
6,AATTATGC,-0.317
7,GGATTCAA,0.097
8,CGCAACGC,-0.34
9,GATGGCGA,-0.0737
10,CGCCCGTC,-0.0478
11,CCCCTGTC,-0.00686
12,CCGTCTCC,0.217
13,GGATTGAA,0.106
14,TGCCGTAA,-0.202
15,AGTCAGAT,0.155
16,ACAGGTGG,-0.0589
17,GCGGAGGA,-0.135
18,CCACGCAG,-0.0301
19,AATACACG,0.124
20,AAGCGTCC,-0.187
21,TCCTTACA,0.0277
22,CTTCACAC,-0.0185
23,AATCATTG,-0.136
24,CGCTACGA,-0.0142
25,CGTGTCTC,0.0982

row,Sequence,binding signal [E-score]
1,GCCTTCCC,-0.306
2,GGACCAAC,-0.257
3,CACTGCTA,-0.0991
4,AAGAATCG,0.00046
5,GGGAGCTA,-0.153
6,AACATTTA,-0.176
7,CTCTACAG,0.0472
8,CACTGAAG,-0.238
9,CCCACGAC,-0.0571
10,ACCCTCCT,0.0716
11,AAGAATCT,-0.165
12,CCCCAGCC,-0.0267
13,ATTAGCAA,0.101
14,CCTGACGA,-0.0776
15,GAGGGGAA,-0.0367
16,CTTTACTA,-0.17
17,ATGCATTC,-0.132
18,GCTTTAAA,-0.146
19,GATCGCGC,0.197
20,AAGTTATT,-0.193
21,GTGTTATA,0.219
22,CGGTTCCA,-0.133
23,GAAATACC,0.185
24,AGCCGATA,0.299
25,CCGAAAGC,-0.184

row,Sequence,binding signal [E-score]
1,ATGATCGC,0.265
2,ACATCAGT,-0.174
3,TACGTTAA,-0.0693
4,TACACGGA,0.173
5,AAGACCGG,-0.101
6,GGCACCTA,-0.086
7,CTCATGCC,-0.0993
8,CAGGGGGC,-0.174
9,ACCCGTAT,0.391
10,CCGGGACC,-0.0868
11,ATCGGCAA,0.116
12,CCGCCCCC,-0.0493
13,CACCTCGC,0.0316
14,CAACTGCG,-0.101
15,CGGTTTCA,0.152
16,CCTGGTCA,-0.0651
17,GTCCCTGA,-0.133
18,CCTACAGA,-0.0536
19,TCGCACCA,0.0105
20,TAGTCATA,0.0341
21,CTCCTCGA,-0.0638
22,CACAGCGA,0.0447
23,ATGACGGA,-0.0239
24,TCGTTAGA,0.0288
25,ACGCAGAA,-0.0863

row,Sequence,binding signal [E-score]
1,TTATGGAA,-0.176
2,CCCTTGAC,-0.077
3,GGATGGCC,-0.063
4,ACGTGCCA,-0.0867
5,ATGGGAGC,-0.0721
6,AGCTGGAC,-0.0395
7,CTTTCTAC,-0.0374
8,ACATCTGC,-0.125
9,CCAAGGTA,-0.0461
10,CTAGGGGC,-0.137
11,CCCATCCC,0.154
12,CACGCATG,-0.0875
13,AAAGAAAC,-0.138
14,GACAGATA,0.324
15,CAAAATGA,-0.077
16,AGCTGCTG,-0.163
17,AATATCAA,0.225
18,ACTGCCGA,0.131
19,CCAGTAGG,-0.123
20,CCACTCGA,0.0984
21,AGCCTCTA,0.000285
22,CCGGTATC,0.465
23,AAACCGCA,-0.131
24,GGGCAAAA,-0.0723
25,AAATATTC,-0.0276

row,Sequence,binding signal [E-score]
1,ACGTCCGG,-0.191
2,GAGCCATC,0.0213
3,TATTCTGA,0.01
4,ACTCTCGC,-0.047
5,AAGACTAA,0.0124
6,CCGCTTGA,-0.076
7,ATCCAATG,0.175
8,CGTCGCAA,-0.17
9,AGCGTCAA,-0.103
10,CGGGGTGA,0.198
11,GCTCTTAC,-0.143
12,CTGGCGCA,-0.235
13,GATATGCA,0.403
14,AAGTAATC,-0.022
15,AGTCGTGC,-0.381
16,GAGACACA,0.175
17,TGGATCAA,0.306
18,TACCGGAA,-0.00044
19,CGCAGCTC,-0.0286
